± gives the standard deviation. Over roughly 6,600 sequences, “pre-steady-state target cleavage rate” has its median near 0.07; the highest 2% begin near 0.72. The list shows a part of the results, in another mix than the full data.
System: MIWI (PIWIL1) piRISC loaded with Kctd7 piRNA (30 nt)
Assay: pre-steady-state target cleavage rate (min^-1); MIWI and MILI are mouse PIWI proteins and EfPiwi is from a freshwater sponge; tags in brackets are library labels; higher = faster piRNA-guided slicing of the target
Conditions: guide: Kctd7 piRNA 5'p-UGUUAAUCUCUCAGAGAAGGUGACAGUGAU; auxiliary factor: 500 nM mouse GTSF1
In short: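 Cleave-'n-Seq used a transcribed, DNA-blocked target RNA library at 0.1 nM and active affinity-purified piRISC with one synthetic guide at 1 nM, with or without 500 nM GTSF1 partner protein, in HEPES–potassium acetate buffer at 33 °C for 0–8 or 0–960 min. Uncleaved targets were sequenced and normalised to depth and to weakly complementary targets, and three trials were pooled with k3 capped at 0.0001 min^-1. The pre-steady-state cleavage rate was estimated by a burst-and-steady-state fit.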

| Sequence | pre-steady-state target cleavage rate |
| --- | --- |
| UAGUGACACUCCUUCUCUGAGACAUUAACA | 0.088 ± 0.011 |
| UAGUGACAGUCCUUCUCUGAGAGAUUAAAA | 0.0154 ± 0.0051 |
| UAGUGACAGUGGAAGAGACUGAGGAUUAACA | < 0.0001 |
| AUCACUGUCAGCUUCACUGAGAGAUUAACA | 0.571 ± 0.035 |
| UUCAGACUCACCUUCUCUGAGAGAUAUUGA | 0.00803 ± 0.0019 |
| UAGUCUGUCACCUUCAGAGAGAGAUUAACA | 0.0128 ± 0.0072 |
| UAGUGAGUCACCAUCUCUGAGUGAUUAACA | 0.0219 ± 0.0055 |
| UAGUGACACAUCCUUCUCUGAGAGAUUAACA | 0.267 ± 0.026 |
| UAGUGUGUCACCUUCACUGACAGAUUAACA | 0.336 ± 0.032 |
| UAGUGAGUCUCCUUCUCUGAGACAUUAACA | 0.116 ± 0.015 |
| UAGACAGUCACCUUCUCUGUGAGAUUAACA | 0.247 ± 0.012 |
| UACACUGUCACCUUCUGAGAGAGAUUAACA | 0.0389 ± 0.0081 |
| AUCACUGUCACCAUCUCUGAGAGUUUAACA | 0.242 ± 0.036 |
| UAGUGACACACCUUCUCUGAGAGAUUAACA [g2:g22:cont:t1A] | 0.534 ± 0.036 |
| UAGUCUGUCACCUAGUCUGAGAGAUUAACA | 0.362 ± 0.026 |
| UUCACUGUCACCAAGUCUGAGAGAUUAACA | 0.181 ± 0.015 |
| UAGUGACUCAGCUUCUCUGAGAGAUUAACA | 0.189 ± 0.016 |
| UAGUGAGUCACCUUCUCUGAGAGAUGAACA | 0.193 ± 0.036 |
| UAGUGACACACCUUCUGUGAGAGAUUAUGA | 0.015 ± 0.007 |
| UACAAUGUCACCUUCUCUGAGAGAUUAACA | 0.647 ± 0.026 |
| UAGUCUGUCACCGUUCUCUGAGAGAUUAACA | 0.651 ± 0.041 |
| AUCACUGUCCCCUUCUCUGAGAGAUUAACA | 0.71 ± 0.052 |
| UAGUGACUCACCUUCUUUGAGAGAUUAACA | 0.196 ± 0.021 |
| UAGUGACUCACCUUCUCUGAGAGAAUUUGA | 0.00468 ± 0.0036 |

| Sequence | pre-steady-state target cleavage rate |
| --- | --- |
| UAGUGUGUCACCUUCUGUGAGAGAUAAACA | 0.158 ± 0.02 |
| UAGUGUGUCACGUUCUCUGAGAGAUUUACA | 0.23 ± 0.031 |
| UAGUGACAGACCUUCUCUGACAGAUUAUCA | 0.00357 ± 0.0033 |
| UAGUGACACACCUUCUCUGAGAGAUAUUGA | 0.00583 ± 0.0043 |
| AUCACUGUCACCUUCUCUGAGAGAAUUUGA | 0.354 ± 0.089 |
| UAGUGACACACCUUCUCUUAGAGAUUAACA | 0.149 ± 0.016 |
| UAGUCAGUCUCCUUCUCUGAGAGAUUAACA | 0.45 ± 0.034 |
| UUCCACUGUCACCUUCUCUGAGAGAUUAACA | 0.601 ± 0.034 |
| UAGUCUGUCAGCUUCUCUGAGAGAUUUACA | 0.166 ± 0.022 |
| UAGUGACACACCUUCUCUGAGAGAUUAACC [g2:g22:cont:t1C] | 0.305 ± 0.037 |
| UAGUCUGUCACCUUGUCUGAGAGUUUAACA | 0.19 ± 0.041 |
| UUCACUGUCACCUUCUCUGAUAGAUUAACA | 0.611 ± 0.023 |
| UUCACUGUGACCUUCUGUGAGAGAUUAACA | 0.459 ± 0.025 |
| UACACUGUCACCUUCUCUGACAGAUAAACA | 0.0511 ± 0.014 |
| UAGUGUGACUCCUUCUCUGAGAGAUUAACA | 0.301 ± 0.026 |
| UAGUGACUCACCAACUCUGAGAGAUUAACA | 0.042 ± 0.0074 |
| UAGUGACUCAGCAUCUCUGAGAGAUUAACA | 0.00306 ± 0.0023 |
| UACACUGUCACCUUGUCUGAGAGAUUUACA | 0.989 ± 0.19 |
| AUCACUGUCACCUUCUCUCAGAGAUUAUCA | 0.057 ± 0.0091 |
| AUCACUGUCACCUUCUCUGAGAGAUUAGCA | 0.33 ± 0.046 |
| UAGUCUGUCACCAUCUCUGUGAGAUUAACA | 0.194 ± 0.015 |
| UAGUGUCUCACCUUCUCUGAGUGAUUAACA | 0.0236 ± 0.0054 |
| UAGACUGACACCUUGUCUGAGAGAUUAACA | 0.146 ± 0.022 |
| UAGUGACUGACCUUGUCUGAGAGAUUAACA | 0.0378 ± 0.011 |

| Sequence | pre-steady-state target cleavage rate |
| --- | --- |
| AUCACUGUCCCUUCUCUGAGAGAUUAACA | 0.666 ± 0.051 |
| UAGUGACAGUCCUUCUCUGAUAGAUUAACA | 0.101 ± 0.012 |
| UAGUCUGUCUCGUUCUCUGAGAGAUUAACA | 0.621 ± 0.039 |
| UUCACUGUCACCUUCUCUGAGAGGUUAACA | 0.262 ± 0.031 |
| AUCACUGUCCACCUUCUCUGAGAGAUUAACA | 0.612 ± 0.057 |
| UAGUGACAGACCUUCUCAGAGAGAUUAACA | 0.0153 ± 0.0041 |
| UUCACUGUCACCCUCUCUGAGAGAUUAACA | 0.643 ± 0.038 |
| AUCACUGUAACCUUCUCUGAGAGAUUAACA | 0.651 ± 0.03 |
| UAGUGACUCACCUACUCUGAGAGAUUUACA | 0.0965 ± 0.018 |
| UAGUGACUCACCUUCUCUGAGACUUUAACA | 0.00961 ± 0.0021 |
| UUCACUGUCACCUUCUCACAGAGAUUAAGA | 0.00698 ± 0.0037 |
| UUCACUGACACCUUCUCUGAGAGAUUUACA | 0.335 ± 0.06 |
| UAGUGUGUCACCUUCUCUGAGUCUUUAUGA | 0.00459 ± 0.004 |
| UAGUCUGUCACGUUCUGUGAGAGAUUAACA | 0.129 ± 0.014 |
| UAGACUGUCACCAAGUCUGAGAGAUUAACA | 0.124 ± 0.018 |
| UAGUGACUCACGUUCUCUGAGACAUUAACA | 0.00425 ± 0.0035 |
| UAGUGUGUCACCUUCUCUGUGUGAUUAACA | 0.00528 ± 0.0044 |
| UAGUGACAGUCCUUCUCUGUGAGAUUAACA | 0.0153 ± 0.0034 |
| UACACUGUCACCUUCUCUGAGAGAAAAAGA | 0.0162 ± 0.0086 |
| AUCACUGUCACGUUCUCUCAGAGAUUAACA | 0.0868 ± 0.0082 |
| AUCACUGUCACCUUCUCUGAGAGAUUCACA | 0.657 ± 0.11 |
| UUCACUGUCACCUUGUCUGAGAGAUUUUGA | 1.06 ± 0.27 |
| UAGUGACUCACCUACACUGAGAGAUUAACA | 0.0196 ± 0.0042 |
